56 compounds from article PMC4336329 (PLoS ONE, 2015) can be followed below.

Out of some 310,000 compounds screened, about 2,200 (0.71%) showed an effect of 50% or more. The effect is printed as a negative number. This is one part of the list.

The target in the test is human ether-à-go-go-related gene (hERG) potassium channel (human, UniProt Q12809). Kind of test: primary screen, population patch clamp on CHO cells stably expressing hERG.
Chain of human ether-à-go-go-related gene (hERG) potassium channel (Q12809 whole entry, looked up): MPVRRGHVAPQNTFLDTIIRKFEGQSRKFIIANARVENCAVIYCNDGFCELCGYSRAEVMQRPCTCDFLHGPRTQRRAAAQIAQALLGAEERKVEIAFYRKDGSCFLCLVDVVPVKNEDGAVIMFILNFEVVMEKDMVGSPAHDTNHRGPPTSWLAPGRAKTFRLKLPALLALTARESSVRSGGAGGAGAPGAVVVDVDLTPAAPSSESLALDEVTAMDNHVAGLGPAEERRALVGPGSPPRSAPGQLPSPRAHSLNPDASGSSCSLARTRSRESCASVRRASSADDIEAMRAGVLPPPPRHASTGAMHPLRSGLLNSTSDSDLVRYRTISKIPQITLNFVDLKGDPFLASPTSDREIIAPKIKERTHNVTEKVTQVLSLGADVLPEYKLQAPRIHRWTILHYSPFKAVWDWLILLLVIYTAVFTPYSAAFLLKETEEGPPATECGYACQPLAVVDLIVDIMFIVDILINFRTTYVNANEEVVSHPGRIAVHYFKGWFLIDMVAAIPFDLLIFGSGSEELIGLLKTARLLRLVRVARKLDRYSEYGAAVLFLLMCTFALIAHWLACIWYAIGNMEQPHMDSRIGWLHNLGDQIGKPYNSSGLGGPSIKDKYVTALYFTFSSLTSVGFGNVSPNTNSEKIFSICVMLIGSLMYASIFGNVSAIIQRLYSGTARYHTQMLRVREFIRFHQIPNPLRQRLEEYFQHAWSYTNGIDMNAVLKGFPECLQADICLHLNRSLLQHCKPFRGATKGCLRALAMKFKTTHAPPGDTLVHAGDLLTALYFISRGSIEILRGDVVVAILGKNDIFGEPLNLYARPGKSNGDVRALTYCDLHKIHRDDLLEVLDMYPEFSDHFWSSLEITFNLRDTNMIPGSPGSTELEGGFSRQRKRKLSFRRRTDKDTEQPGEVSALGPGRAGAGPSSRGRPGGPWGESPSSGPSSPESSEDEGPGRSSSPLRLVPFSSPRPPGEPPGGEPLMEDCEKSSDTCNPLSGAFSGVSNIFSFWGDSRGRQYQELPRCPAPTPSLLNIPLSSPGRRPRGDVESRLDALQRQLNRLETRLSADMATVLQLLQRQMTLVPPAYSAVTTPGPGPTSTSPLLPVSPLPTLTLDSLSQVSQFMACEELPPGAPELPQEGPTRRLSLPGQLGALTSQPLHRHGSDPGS
In the case of `Cc1nc2ccccn2c1C(=O)CSc1ccc(Cl)cc1Cl`, the “hERG current change (%, negative = inhibition) at 1uM” value is on record as -5.22%. For `CC1CCN(CC(=O)c2cccc(C(F)(F)F)c2)CC1.O=C(O)C(=O)O` the value was 4.2%. Take `Cc1sc2nc(C(C)Sc3n[nH]c(N)n3)[nH]c(=O)c2c1C` (centres unmarked): the “hERG current change (%, negative = inhibition) at 1uM” value came to 6.76%. In the case of `C=CCn1c(N)cc(=O)nc1SC(C)C(=O)Nc1ccc(C(=O)OCC)cc1` (centres unmarked), the “hERG current change (%, negative = inhibition) at 1uM” value was 4.12%. As for `O=C(Nc1cccc(Cl)c1)c1ccc(NCC2CCCO2)c([N+](=O)[O-])c1` (centres unmarked), the “hERG current change (%, negative = inhibition) at 1uM” value worked out at 3.6%. With `O=C(Cn1nc(Cc2cccnc2)c2ccccc2c1=O)Nc1cccnc1Cl`, the “hERG current change (%, negative = inhibition) at 1uM” value came out at 11%.

As for `Cc1ccccc1-c1nc(CS(=O)(=O)CC(=O)NCc2ccccc2)c(C)o1`, the “hERG current change (%, negative = inhibition) at 1uM” value is recorded as 9.34%. Turning to `CCCN1CCN(C(=O)c2cc(COc3ccc(F)c(F)c3)on2)CC1`, the “hERG current change (%, negative = inhibition) at 1uM” value is -7.34%. For `O=C(CNc1ccc(F)cc1)N/N=C/c1c(O)ccc2ccccc12` the value was 6.94%. `COc1ccc(-n2ncc3c2CC(C)(C)CC3NC(=O)C2=CC(=O)CC(C)(C)O2)cc1` (centres unmarked): the “hERG current change (%, negative = inhibition) at 1uM” value was -21.5%. In the case of `O=c1cc([O-])nc(SCc2ccccc2)n1-c1ccc(Cl)cc1.[K+]` it was 20.8%; in that of `CCC(=O)Nc1cccc(-c2cc3ccccc3oc2=O)c1`, -20.7%; in that of `COc1ccc(-c2cc(C(F)(F)F)nc(SCC(=O)NCCN3CCOCC3)n2)cc1OC`, 3.13%. Take `Cc1cccc(-n2cc(CNCCN3CCOC3=O)c(-c3cccc(F)c3)n2)c1`: the “hERG current change (%, negative = inhibition) at 1uM” value came to 12.9%.

Take `CCCCNC(=S)N1CCN(c2ccc(C(C)=O)cc2)CC1`: the “hERG current change (%, negative = inhibition) at 1uM” value is given as -11.9%. For `CCc1ccc(NC(=O)CSc2nc3ccsc3c(=O)n2CCC(=O)O)cc1` the value was 16.7%. In the case of `Cc1cccc(-n2ccnc2CN2CCC(CO)(Cc3ccccc3)CC2)c1` it was -16.8%; in that of `O=C(NCc1ccccc1Cl)NC(=O)c1csc([N+](=O)[O-])c1`, 4.34%.

`[2H]C(CCOS(N)(=O)=O)c1ccc(C(C)(C)C)cc1` (centres unmarked): the “hERG current change (%, negative = inhibition) at 1uM” value was -0.401%. For `CN(C)C(=O)C1OC(C)(C)OC1C(=O)N(C)C` (centres unmarked) the value was 12.1%; for `O=C(NCC1CCCO1)C1CCC(=O)N1Cc1ccccc1Cl` (centres unmarked), 3.11%; for `CCN(CC(=O)Nc1c(F)cccc1F)C(=O)c1ccc(S(=O)(=O)NCc2ccco2)cc1`, 14.3%. In the case of `COC(=O)c1ccc(CSc2nc3sc4c(c3c(=O)n2C)CCCC4)o1` it was 13.1%.

Consider `Nc1c(N(Cc2ccco2)C(=O)c2ccc(Cl)cc2)c(=O)[nH]c(=O)n1Cc1ccccc1`, for which the “hERG current change (%, negative = inhibition) at 1uM” value stood at 10.9%. For `c1ccc(-c2noc(CN3CCc4sccc4C3)n2)cc1` the value was 10.7%; for `CCCNc1c(NS(=O)(=O)c2ccc(OC)c(OC)c2)c(=O)oc2ccccc12`, -77.2%; for `COCCC1CCCCN1C(=O)c1cccc(OC2CCN(S(C)(=O)=O)CC2)c1` (centres unmarked), 10.4%.

`N#CC(C#N)=C(N)/C(C#N)=C/c1cc(O)c(O)c(O)c1`: the “hERG current change (%, negative = inhibition) at 1uM” value is on record as 12.8%. For `O=C1CCCCCN1CP(=O)(O)CCc1ccccc1` the value was 3.98%; for `CS(=O)(=O)N1CCN(c2ccc(NC(=O)C(c3ccccc3)c3ccccc3)cc2)CC1`, 2.73%. In the case of `CCOc1ccccc1/C=N/n1c(C)nc2ccccc2c1=O` it was 4.27%. With `COc1ccc(-c2c(-c3cc(OC)cc(OC)c3)n(C)c3ccc(-c4ccc(OC)cc4F)cc23)cc1`, the “hERG current change (%, negative = inhibition) at 1uM” value is recorded as 15.1%. In the case of `Cc1c(NS(=O)(=O)c2ccc(C(=O)NCc3ccc(F)cc3)cc2)c(=O)n(-c2ccccc2)n1C` it was 5.65%.

For the compound `Cc1ccc(C2OC(=O)C=C2c2ccccc2)cc1` (centres unmarked), the “hERG current change (%, negative = inhibition) at 1uM” value is 8.51%. In the case of `COC(CC(=O)NNC(=S)Nc1ccc(Cl)cc1)OC` it was 13.5%. In the case of `Cc1[nH]ncc1N=Cc1ccc([N+](=O)[O-])cc1` it was 2.91%; in that of `COC(=O)CN(c1ccc(C(C)C)cc1)S(=O)(=O)c1c(C)[nH]c(=O)[nH]c1=O`, 16.5%. For `Cc1ccc(C(c2c(O)nc3n(c2=O)CCS3)c2c(O)nc3n(c2=O)CCS3)cc1` the value was 12.8%; for `CC(=O)N1CCOc2ccc(S(=O)(=O)Nc3ccc(C)cn3)cc21`, 4.68%; for `CCC(C)NC(=O)C1CCCCN1S(=O)(=O)c1ccc(F)cc1` (centres unmarked), -0.181%.

As for `CC1=CCP(=O)(c2ccccc2)C1` (centres unmarked), the “hERG current change (%, negative = inhibition) at 1uM” value is listed as 10.3%. In the case of `CC(C(=O)Nc1ccc(N2CCOCC2)cc1)N1C(=O)c2ccccc2C1=O` (centres unmarked) it was 3.56%; in that of `Cc1noc(C)c1CSCC(=O)Nc1cc(Cl)ccc1N1CCCCC1`, 13.3%; in that of `O=c1cc2n(c(=O)[nH]1)CCC1=C2CCCC1`, 12.6%.

For the compound `CCCCC(C(=O)O)C(C)CC(=O)Nc1nccs1` (centres unmarked), the “hERG current change (%, negative = inhibition) at 1uM” value is 10.1%. Turning to `O=C(CCCSc1ccccc1)Nc1cccc(CO)c1`, the “hERG current change (%, negative = inhibition) at 1uM” value is given as 11.2%. In the case of `COCCn1c(SCC(=O)Nc2cc(C)on2)nnc1-c1ccco1` it was 3.08%; in that of `Cc1ccc(CNC(=O)/C=C/c2ccc(Br)o2)cc1`, 5.37%; in that of `CCOC(=O)c1ccccc1NC(=O)C=C(C)C`, 3.5%. `N#Cc1c(N)nc2c(c1-c1ccc3c(c1)OCO3)CCCCCC2`: the “hERG current change (%, negative = inhibition) at 1uM” value is on record as -1.25%. For `CN(NC(=S)Nc1ccc(OC(F)F)cc1)C(=S)Nc1ccc(OC(F)F)cc1` the value was 6.54%; for `COc1ccc(CC(=O)NC(C)c2nnc(SCC(=O)Nc3nc(C)cs3)n2C)cc1` (centres unmarked), 11.6%; for `Cn1c2ccccc2c2cnn(CC(=O)Nc3ccccc3Br)c(=O)c21`, 6.93%. As for `N/C(=N\OC(=O)c1cccc2ccccc12)c1ccccn1`, the “hERG current change (%, negative = inhibition) at 1uM” value was 7.84%. Take `CCOC(=O)c1ccc(-n2c(CN3CCC(C(N)=O)CC3)nc3ccc([N+](=O)[O-])cc3c2=O)cc1`: the “hERG current change (%, negative = inhibition) at 1uM” value is listed as 5.86%. Turning to `CCOC(=O)c1c(C)oc2ccc(OC(=O)COc3c(F)c(F)c(F)c(F)c3F)cc12`, the “hERG current change (%, negative = inhibition) at 1uM” value is 7.82%.
